Consider six molecules from paper PMC10558455.

Sequences of proteins named here, by UniProt entry; tags and fusion partners are left off.
UniProt Q9UK41: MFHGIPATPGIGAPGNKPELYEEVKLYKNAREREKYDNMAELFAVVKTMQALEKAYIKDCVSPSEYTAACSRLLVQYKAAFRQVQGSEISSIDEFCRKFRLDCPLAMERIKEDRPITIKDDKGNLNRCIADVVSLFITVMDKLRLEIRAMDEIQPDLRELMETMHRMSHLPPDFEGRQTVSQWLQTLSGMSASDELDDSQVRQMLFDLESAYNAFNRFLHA
UniProt Q8NEZ2: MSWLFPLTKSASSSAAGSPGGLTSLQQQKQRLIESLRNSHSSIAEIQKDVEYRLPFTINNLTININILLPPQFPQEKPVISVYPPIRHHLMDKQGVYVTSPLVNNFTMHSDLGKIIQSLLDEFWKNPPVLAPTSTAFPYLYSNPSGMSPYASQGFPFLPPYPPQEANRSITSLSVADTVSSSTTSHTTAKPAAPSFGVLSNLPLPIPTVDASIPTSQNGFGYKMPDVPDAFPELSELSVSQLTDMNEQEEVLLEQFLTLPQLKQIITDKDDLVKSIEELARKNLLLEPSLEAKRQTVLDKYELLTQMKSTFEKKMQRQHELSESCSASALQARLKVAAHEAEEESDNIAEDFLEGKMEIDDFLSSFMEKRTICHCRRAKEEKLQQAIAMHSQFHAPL

Positions count from the first letter of the chain named. Names may count otherwise. These are yes or no findings as the source states them, for the method shown. Binding seen in cells or lysates may run through a third protein. Some results given as binding are weak or reduced against the parent protein; the word gives no strength. For some assays here: Tags and fused reporters may be left off the sequences shown.

The target in assay [1] is T1, endogenous Rab41 (human (endogenous in HeLa)) (UniProt Q5JT25).
T1 sequence: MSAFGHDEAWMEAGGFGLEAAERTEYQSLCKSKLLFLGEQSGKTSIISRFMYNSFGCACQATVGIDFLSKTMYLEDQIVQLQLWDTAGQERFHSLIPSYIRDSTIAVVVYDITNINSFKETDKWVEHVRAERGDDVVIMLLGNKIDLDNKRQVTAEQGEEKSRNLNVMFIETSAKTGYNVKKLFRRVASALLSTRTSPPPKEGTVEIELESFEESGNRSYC
Description: co-IP; endogenous proteins; HeLa cells incubated without LLOMe; lysates precipitated with anti-Rab41 antibody; immunoblot. (In general: In western blotting, separated proteins are transferred to a membrane and probed.)

Assay [2] has as its target T1, endogenous Rab41 (human (endogenous in HeLa)). Nature of the assay: co-IP; endogenous proteins; HeLa cells incubated with LLOMe for 1 h; lysates precipitated with anti-Rab41 antibody; immunoblot.
In assay [3] the target is T2, GFP-Rab41 (human) (UniProt Q5JT25).
T2 sequence: T1 sequence
Nature of the assay: proximity ligation.

For assay [4], the target named is T3, recombinant VPS4A (human) (UniProt Q9UN37).
T3 sequence: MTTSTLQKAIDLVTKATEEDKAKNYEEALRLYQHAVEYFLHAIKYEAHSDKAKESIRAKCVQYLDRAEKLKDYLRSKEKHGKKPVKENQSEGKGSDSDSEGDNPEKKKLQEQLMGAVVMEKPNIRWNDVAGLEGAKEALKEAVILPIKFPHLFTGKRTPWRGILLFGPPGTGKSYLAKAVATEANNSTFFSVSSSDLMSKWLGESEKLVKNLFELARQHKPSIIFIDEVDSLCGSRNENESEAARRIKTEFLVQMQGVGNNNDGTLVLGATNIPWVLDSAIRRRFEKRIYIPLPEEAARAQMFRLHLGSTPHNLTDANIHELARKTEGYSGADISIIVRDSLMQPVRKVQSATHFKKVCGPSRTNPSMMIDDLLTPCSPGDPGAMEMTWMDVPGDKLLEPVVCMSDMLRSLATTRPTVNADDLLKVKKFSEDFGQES
Description: pull-down; E. coli BL21 (DE3) proteins; GST-tagged protein held on Glutathione Sepharose 4 Fast Flow and washed, then mixed with the cleared lysate of the MBP-tagged protein for 2 h at 4 °C in 40 mM Tris-HCl pH 7.5, 5 mM EDTA, 0.5% Triton X-100; CBB staining or immunoblot; only the target purified.

Assay [5] deals with T4, GFP-EAP20 (human) (UniProt Q9BRG1).
T4 sequence: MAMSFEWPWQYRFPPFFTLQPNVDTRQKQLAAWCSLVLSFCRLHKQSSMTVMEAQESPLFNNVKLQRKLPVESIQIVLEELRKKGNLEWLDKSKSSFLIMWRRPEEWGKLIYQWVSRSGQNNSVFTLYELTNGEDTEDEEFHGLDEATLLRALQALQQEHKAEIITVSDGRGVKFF
Description: co-IP.

In assay [6] the target is T5, GFP-EAP30 (human) (UniProt Q96H20).
T5 sequence: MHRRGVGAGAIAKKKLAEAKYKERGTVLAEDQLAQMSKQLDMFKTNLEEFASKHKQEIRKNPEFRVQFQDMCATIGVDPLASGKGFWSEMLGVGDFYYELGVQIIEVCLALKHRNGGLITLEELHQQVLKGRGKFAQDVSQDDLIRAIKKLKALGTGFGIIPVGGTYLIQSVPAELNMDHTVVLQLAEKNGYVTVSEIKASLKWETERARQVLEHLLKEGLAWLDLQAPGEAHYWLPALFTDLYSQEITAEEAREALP
Description: co-IP.

For assay [7], the target named is GFP-MVB12A (human) (UniProt Q96EY5). Nature of the assay: co-IP.
Assay [8] deals with T6, GFP-MVB12B (human) (UniProt Q9H7P6).
T6 sequence: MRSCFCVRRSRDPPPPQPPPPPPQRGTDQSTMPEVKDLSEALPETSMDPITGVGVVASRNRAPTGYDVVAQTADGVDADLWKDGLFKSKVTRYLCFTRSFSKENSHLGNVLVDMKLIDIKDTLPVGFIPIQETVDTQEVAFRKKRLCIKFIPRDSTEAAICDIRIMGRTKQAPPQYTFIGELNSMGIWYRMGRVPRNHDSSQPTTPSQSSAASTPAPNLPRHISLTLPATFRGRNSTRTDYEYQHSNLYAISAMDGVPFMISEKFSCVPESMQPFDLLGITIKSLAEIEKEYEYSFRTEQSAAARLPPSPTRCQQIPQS
Nature of the assay: co-IP.

Assay [9] deals with T7, GFP-UBAP1 (human) (UniProt Q9NZ09).
T7 sequence: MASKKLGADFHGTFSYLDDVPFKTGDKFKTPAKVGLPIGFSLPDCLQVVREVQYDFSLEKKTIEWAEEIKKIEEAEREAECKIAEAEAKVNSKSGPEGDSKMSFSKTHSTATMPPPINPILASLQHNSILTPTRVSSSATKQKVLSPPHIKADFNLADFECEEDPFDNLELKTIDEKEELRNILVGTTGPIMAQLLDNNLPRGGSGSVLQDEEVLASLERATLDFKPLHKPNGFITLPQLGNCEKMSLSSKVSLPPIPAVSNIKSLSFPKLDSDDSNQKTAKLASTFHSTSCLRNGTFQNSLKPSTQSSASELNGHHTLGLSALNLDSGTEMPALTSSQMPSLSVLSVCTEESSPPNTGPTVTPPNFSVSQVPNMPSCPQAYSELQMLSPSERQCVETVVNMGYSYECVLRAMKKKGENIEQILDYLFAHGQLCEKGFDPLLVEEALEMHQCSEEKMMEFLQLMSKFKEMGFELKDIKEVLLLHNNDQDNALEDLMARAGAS
Nature of the assay: co-IP.

The target in assay [10] is GFP-VPS28 (human) (UniProt Q9UK41). Description: co-IP.
The target of assay [11] is GFP-VPS37A (human) (UniProt Q8NEZ2). Nature of the assay: co-IP.
Assay [12] concerns the target T8, GFP-VPS37D (human) (UniProt Q86XT2).
T8 sequence: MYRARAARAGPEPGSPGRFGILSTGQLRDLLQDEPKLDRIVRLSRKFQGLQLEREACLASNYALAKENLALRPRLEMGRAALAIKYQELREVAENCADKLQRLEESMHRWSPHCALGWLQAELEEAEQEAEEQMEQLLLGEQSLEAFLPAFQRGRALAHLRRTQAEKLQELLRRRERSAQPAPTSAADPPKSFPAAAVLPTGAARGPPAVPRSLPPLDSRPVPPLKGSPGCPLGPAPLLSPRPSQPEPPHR
Description: co-IP.

B1: endogenous TOM1L2 (protein, UniProt Q6ZVM7 1-507)
chain: MEFLLGNPFSTPVGQCLEKATDGSLQSEDWTLNMEICDIINETEEGPKDAIRALKKRLNGNRNYREVMLALTVLETCVKNCGHRFHILVANRDFIDSVLVKIISPKNNPPTIVQDKVLALIQAWADAFRSSPDLTGVVHIYEELKRKGVEFPMADLDALSPIHTPQRSVPEVDPAATMPRSQSQQRTSAGSYSSPPPAPYSAPQAPALSVTGPITANSEQIARLRSELDVVRGNTKVMSEMLTEMVPGQEDSSDLELLQELNRTCRAMQQRIVELISRVSNEEVTEELLHVNDDLNNVFLRYERFERYRSGRSVQNASNGVLNEVTEDNLIDLGPGSPAVVSPMVGNTAPPSSLSSQLAGLDLGTESVSGTLSSLQQCNPRDGFDMFAQTRGNSLAEQRKTVTYEDPQAVGGLASALDNRKQSSEGIPVAQPSVMDDIEVWLRTDLKGDDLEEGVTSEEFDKFLEERAKAAEMVPDLPSPPMEAPAPASNPSGRKKPERSEDALFAL
Take B1: the values for the binding entry in assay [1] and in [2] were “no binding (condition: cells not treated with LLOMe)” and “binds”, respectively.

B2: FLAG-TOM1L2 (protein, UniProt Q6ZVM7 1-507)
chain: B1 chain
Turning to B2, the binding entry in assay [3] was “binds”.

B3: recombinant Rab41 (protein, UniProt Q5JT25-2 1-221)
chain: T1 sequence
On to B3, for which the binding result in assay [4] is listed as “binds”.

B4: recombinant Rab41 Q89L (GTP-locked) (protein, UniProt Q5JT25-2 1-221)
chain: T1 sequence with Q89L
For B4, the binding result in assay [4] is reported as “binds”.

B5: FLAG-Rab41 (protein, UniProt Q5JT25-2 1-221)
chain: T1 sequence
Turning to B5, the binding entry in assay [5], in [6], in assay [7], in [8], in assay [9] and in [10] was “binds” in each case. Moreover, the binding entry in assay [11] and in [12] was “binds” each time.

B6: recombinant Rab41 T44N (GDP-locked) (protein, UniProt Q5JT25-2 1-221)
chain: T1 sequence with T44N
As to B6, the binding result in assay [4] is recorded as “binds”.
